Experimental data reported in the RNAGym collection of RNA variant scans (doi:10.1101/gad.245936.114).
This sample is rich in variants without activity.

B1: tRNA (parent)
chain: CUCUCGGUAGCCAAGUUGGUUUAAGGCGCAAGACUUUAAUUUAUCACUACGAAAUCUUGAGAUCGGGCGUUCGACUCGCCCCCGGGAGAUUUUUUCCUCGAGCAA

Variants of: B1
Assay: nonsense suppression (GFP-seq) (ratio to wild type); higher = more function; SUP4oc tRNA, yeast GFP reporter sort-seq
In short: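 Sorted GFP/RFP bins of yeast were each Illumina-sequenced with a phred ≥30 cutoff; the cells held a genome-integrated ochre-suppressor tRNA variant from a library with ~3% random mutations, a galactose-driven GFP ochre reporter, and RFP. Culture was in raffinose/galactose medium containing 80 mg/L adenine. Nonsense suppression, termed GFPSEQ, is the median GFP/RFP of the bins weighted by each variant's estimated cell share per bin, relative to the unmutated parent tRNA, for variants reaching ≥100 reads and ≥30 cells.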

Which nonsense suppression does the source give for CCCUCGGUAGCCAUGUUGGUUUAAGGCGCAAGACUUUAAUUUAUCACUACGAAAUCUUGAGAUCGGGCGUUCGACUCGCCCCCGGGAGAUUUUUUCCUCGAGCAA [U2C A14U] here?
Its nonsense suppression is no more than 0.026.

With CCCUCGGUAGCCAUGUUGGUUUAAGGCGAAAGACUUUAAUUUAUCACUACGAAAUCUUGAGAUCGGGCGUUCAACUCGCCCCCGGGAGAUUUUUUCCUCGAGCAA [U2C A14U C29A G73A] as the variant, how does the nonsense suppression read?
The nonsense suppression was no more than 0.026.

For CCCUCGGUAGCCAUGGUGGUUUAAUGCGCAAGACUUUAAUUUAUCACUACGAAAUCUUGAGAUCGGGCGUUCGACUCGCCCCCGCGAGAUUUUUUCCUCGAGCAA [U2C A14U U16G G25U G85C], which nonsense suppression is on record?
Its nonsense suppression is no more than 0.026.

For CCCUCGGUAGCCAUGUUGGUUUAAGGCGCAAGACUUUAAUUUAUCACUACGAAAUCCUGAGAUCGGGCGUUCGACUCGCCCCCGGGAGAUUUUUUCCUCGAGCAA [U2C A14U U57C], which nonsense suppression is on record?
Its nonsense suppression is no more than 0.026.

With CCCUCGGUAGCCAAGUUGGUUUGAGGCGCAAGACUUUAAUUUAUCACUACGAAAUCUUGAGAUCGGGCGUUCGACUCGCCCCCGGGAGAUUUUUUCCUCGAGCAA [U2C A23G] as the variant, how does the nonsense suppression read?
The nonsense suppression was 0.0274.

For CCCUCGGUAGCCAAGUUGGUUUGAGGCGCAAGACUUUAAUUUAUCACUACGAAAUCUUGAGAUCGGGCGUUCGACUCGCACCCGGGAGAUUUUUUCCUCGAGCAA [U2C A23G C80A], which nonsense suppression is on record?
Its nonsense suppression is no more than 0.026.

With CCCUCGGUAGCCAAGUUGGUUUUAGGCGCAAGACUUUAAUUUAUCACUACGAAAUCUUGAGAUCGGGCGUUCGACUCGCCCCCGGGAGAUUUUUUCCUCGAGCAA [U2C A23U] as the variant, how does the nonsense suppression read?
The nonsense suppression was no more than 0.026.

With CCCUCGGUAGCCAAGUUGGUUUACGGCGCAAGACUUUAAUUUAUCACUACGAAAUCUUGAGAUCGGGCGUUCGACUCGCCCCCGGGAGAUUUUUUCCUCGAGCAA [U2C A24C] as the variant, how does the nonsense suppression read?
The nonsense suppression was 0.0326.

With CCCUCGGUAGCCAAGUUGGUUUAGGGCGCAGGACUUUAAUUUAUCACUACGAAAUCUUGAGAACGGGCGUUCGACUCGCCCCCGGGAGAUUUUUUCCUCGAGCAA [U2C A24G A31G U63A] as the variant, how does the nonsense suppression read?
Its nonsense suppression is no more than 0.026.

Which nonsense suppression does the source give for CCCUCGGUAGCCAAGUUGGUUUAUGGCGCAAGACUUUAAUUUAUCACUACGAAAUCUUGAGAUCGGGCGUUCGACUCGCCCCCGGGAGAUUUUUUCCUCGAGCAA [U2C A24U] here?
Its nonsense suppression is no more than 0.026.

For CCCUCGGUAGCCAAGUUGGUUUAAGGCGCCAGACUUUAAUUUAUCACUACGAAAUCUUGGGAUCGGGCGUUCGACUCGCCCCCGAGAGAUUUUUUCCUCGAGCAA [U2C A30C A60G G85A], which nonsense suppression is on record?
Its nonsense suppression is no more than 0.026.

Which nonsense suppression does the source give for CCCUCGGUAGCCAAGUUGGUUUAAGGCGCCAGACUUUAAUUUAUCACUACGAAAGCUUGAGAUCGGGCGGUCGACUCGCCCCUGGGAGAUUUUUUCCUCGAGCAA [U2C A30C U55G U70G C83U] here?
The nonsense suppression was no more than 0.026.

For CCCUCGGUAGCCAAGUUGGUUUAAGGCGCGAGAAUUUAAUUUAUCACUACGAAAUCUUGAGAUCCGGCGUUCGACUCGCCCCCGGGAGAUUUUUUCCUCGAGCAA [U2C A30G C34A G65C], which nonsense suppression is on record?
The nonsense suppression was no more than 0.026.

For CCCUCGGUAGCCAAGUUGGUUUAAGGCGCGAGACUUUAAUUUAUCACUACGAAAUCUUGAGAUCGGGCGUCCGACUCGCCCCCGGGAGAUUUUUUCCUCGAGCAA [U2C A30G U71C], which nonsense suppression is on record?
The nonsense suppression was no more than 0.026.

Which nonsense suppression does the source give for CCCUCGGUAGCCAAGUUGGUUUAAGGCGCUGGACUUUAAUUUAUCACUACGAAAUCUUGAGGUCGGACGUUCGACUCGCCCCCGGCAGAUUUUUUCCUCGAGCAA [U2C A30U A31G A62G G67A G86C] here?
The nonsense suppression was no more than 0.026.

With CCCUCGGUAGCCAAGUUGGUUUAAGGCGCAGGACUUUAAUUUAUCACUACGAAAUCUUGAGAUCGGGCGUUCGACUCGCCCCCGGGAGAUUUUUUCCUCGAGCAA [U2C A31G] as the variant, how does the nonsense suppression read?
The nonsense suppression was 0.0356.

Which nonsense suppression does the source give for CCCUCGGUAGCCAAGUUGGUUUAAGGCGCAUGACUUUAAUUUAUCACUACGAAAUCUUGAGAUCGGGCGUUCGACUCGCCCCCGGGAGAUUUUUUCCUCGAGCAA [U2C A31U] here?
Its nonsense suppression is no more than 0.026.

With CCCUCGGUAGCCAAGUUGGUUUAAGGCGCAAGCCUUUAAUUUAUCACUACGAAAUCUUGAGAUCGGGCGUUCGACUCGCCCCCGUGAGAUUUUUUCCUCGAGCAA [U2C A33C G85U] as the variant, how does the nonsense suppression read?
Its nonsense suppression is no more than 0.026.

With CCCUCGGUAGCCAAGUUGGUUUAAGGCGCAAGGCUUUAAUUUAUCACUACGAAAUCUUGAGAUCGGGCGUUCGGCUCGCCCCCGGUAGAUUUUUUCCUCGAGCAA [U2C A33G A74G G86U] as the variant, how does the nonsense suppression read?
Its nonsense suppression is no more than 0.026.

Which nonsense suppression does the source give for CCCUCGGUAGCCAAGUUGGUUUAAGGCGCAAGUAUUUAAUUUAUCACUACGAAAUCUUGAGAUCGGGCGUUCGACUCGCCCCCGGGAUAUUUUUUCCUCGAGCAA [U2C A33U C34A G88U] here?
Its nonsense suppression is no more than 0.026.

For CCCUCGGUAGCCAAGUUGGUUUAAGGCGCAAGACUUUAAUUUAUCACUACGAAAUCUUGAGAUCGGGCGUUCGCCUCGCCCCCGGGAGAUUUUUUCCUCGAGCAA [U2C A74C], which nonsense suppression is on record?
The nonsense suppression was no more than 0.026.

For CCAUCGGUAGCCAAGUUGGUUUAAGGCGCAAGACUUUAAUUUAUCACUACGAAAUCUUGAGAUCGGGCGUUCGACUCGCCCCCGGGAGAUUUUUUCCUCGAGCAA [U2C C3A], which nonsense suppression is on record?
The nonsense suppression was no more than 0.026.

With CCGUCGGUAGCCAAGUUGGUUUAAGGCGCAAGACUUUAAUUUAUCACUACGAAAUCUUGAGAUCGGGCGUUCGAAUCGCCCCCGGGCGAUUUUUUCCUCGAGCAA [U2C C3G C75A A87C] as the variant, how does the nonsense suppression read?
The nonsense suppression was no more than 0.026.

Which nonsense suppression does the source give for CCUUCGGUAGCCACGUUGGUUUAAGGCGCAAGACUUUAAUUUAUCACUACGAAAUCUUGAGAUCGGGCGUUCGACUCGCCCCCGGGAGAUUUUUUCCUCGAGCAA [U2C C3U A14C] here?
Its nonsense suppression is no more than 0.026.

For CCUUCGGUAGCUAAAUUGGUUUAAGGCGCAAGACUUUAAUUUAUCACUACGAAAUCUUGAGAUCGGGCGUUCGACUCGCCCCCGGGAGAUUUUUUCCUCGAGCAA [U2C C3U C12U G15A], which nonsense suppression is on record?
Its nonsense suppression is no more than 0.026.

For CCUUCGGUAGCCAAGUUGGUUUAAGGCGGAAGACUUUAAUUUAUCACUACGAAAUCUUGAGAUCGGGCGUUCGACUCGCCCCCGGGAGAUUUUUUCCUCGAGCAA [U2C C3U C29G], which nonsense suppression is on record?
The nonsense suppression was no more than 0.026.

For CCCUAGGUAGCCAAGUUGGUUUAAGGCGCAAGACUUUAAUUUAUCACUACGAAAUCUUGAGAUCGGGCGUUCGACUCGCCCCCGGGAGAUUUUUUCCUCGAGCAA [U2C C5A], which nonsense suppression is on record?
The nonsense suppression was no more than 0.026.
